Experimental data as given in US6521602 (GPC BIOTECH, dated 2003).

What was measured:
Assay in all cases: cell-based or functional assay
[1] = biological target: CDC2/cyclin B complex (UniProt P06493)
[2] = biological target: CDK4/cyclin D1 complex (UniProt P11802 1-303; P24385)
[3] = biological target: CDK2/cyclin E complex (UniProt P24941)
[4] = biological target: CDK2/cyclin A complex (UniProt P24941)

Sequence of UniProt P06493 (P06493 whole entry, one chain of several): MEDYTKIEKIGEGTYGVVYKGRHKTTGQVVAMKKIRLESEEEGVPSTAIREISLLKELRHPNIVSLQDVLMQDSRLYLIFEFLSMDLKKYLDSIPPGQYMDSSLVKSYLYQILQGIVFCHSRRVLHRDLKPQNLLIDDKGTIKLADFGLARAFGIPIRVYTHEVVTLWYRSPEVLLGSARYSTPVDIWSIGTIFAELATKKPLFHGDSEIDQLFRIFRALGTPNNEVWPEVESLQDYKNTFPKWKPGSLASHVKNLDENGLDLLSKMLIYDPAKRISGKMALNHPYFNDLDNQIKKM
Sequence of UniProt P11802 (P11802 whole entry, chain 1 of 2): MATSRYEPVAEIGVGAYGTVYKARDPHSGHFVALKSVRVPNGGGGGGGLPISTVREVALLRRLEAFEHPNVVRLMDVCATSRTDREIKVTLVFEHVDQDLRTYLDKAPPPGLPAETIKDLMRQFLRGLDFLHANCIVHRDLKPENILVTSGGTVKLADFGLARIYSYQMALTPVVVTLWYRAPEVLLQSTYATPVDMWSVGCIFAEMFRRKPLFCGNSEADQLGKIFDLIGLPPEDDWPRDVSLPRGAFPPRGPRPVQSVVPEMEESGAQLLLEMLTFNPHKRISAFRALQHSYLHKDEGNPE
Sequence of UniProt P11802 (P24385 whole entry, chain 2 of 2, further chain): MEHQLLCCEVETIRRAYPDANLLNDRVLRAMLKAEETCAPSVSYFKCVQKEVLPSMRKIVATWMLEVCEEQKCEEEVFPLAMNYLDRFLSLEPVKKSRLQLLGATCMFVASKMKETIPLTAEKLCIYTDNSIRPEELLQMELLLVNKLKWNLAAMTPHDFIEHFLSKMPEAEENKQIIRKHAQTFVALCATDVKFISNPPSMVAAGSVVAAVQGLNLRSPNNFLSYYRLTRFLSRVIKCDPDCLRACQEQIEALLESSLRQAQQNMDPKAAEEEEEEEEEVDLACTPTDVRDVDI

IC50, in vitro kinase activity [1]: 15 nM | IC50, in vitro kinase activity [2]: 25 nM | IC50, in vitro kinase activity [3]: 30 nM | IC50, in vitro kinase activity [4]: 25 nM
B1: p27-p16 fusion protein (other)
chain: [letters of about 200 residues left out]MEPAAGSSMEPSADWLATAAARGRVEEVRALLEAGALPNAPNSYGRRPIQVMMMGSARVAELLLLHGAEPNCADPATLTRPVHDAAREGFLDTLVVLHRAGARLDVRDAWGRLPVDLAEELGHRDVARYLRAAAGGTRGSNHARIDAAEGPSDIPD
notes: Tags (6xHis, HA) may be present at the N-terminus; expressed as GST fusion, GST removed by thrombin; not shown: junction: (Gly4Ser)3 hinge in W3, none in W4
